Results are given in words; binding and its absence hold for the method and conditions named. For some of these results: In cells and extracts the contact can be indirect. Some results given as binding are weak or reduced against the parent protein; the word gives no strength. For some of these results: Tags and fused reporters may be left off the sequences shown.

Results on ten molecules are retold here after article PMC9372576.

Test [1] has as its target GvpC (Halobacterium salinarum) (UniProt P24574). Put plainly: SDS-PAGE and Western analysis of lysates; lysates of Hfx. volcanii transformants producing one Gvp protein alone (controls); bands larger than the monomer.
In test [2] the target is T1, CBDO (Halobacterium salinarum) (UniProt O51968).
T1 sequence: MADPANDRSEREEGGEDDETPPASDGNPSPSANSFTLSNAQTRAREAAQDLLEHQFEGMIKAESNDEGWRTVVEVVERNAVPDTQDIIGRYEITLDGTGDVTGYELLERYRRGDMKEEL
Kind of test: pull-down; CBD-tagged bait and one untagged prey co-produced in Hfx. volcanii CBDX/Y transformants; lysate in 2.5 M KCl buffer pH 8.0 bound to cellulose (Avicel), six washes, elution with ethylene glycol, Western analysis with Gvp antisera.

In test [3] the target is T2, GvpC fused to NGFP or CGFP (Halobacterium salinarum) (UniProt P24574).
T2 sequence: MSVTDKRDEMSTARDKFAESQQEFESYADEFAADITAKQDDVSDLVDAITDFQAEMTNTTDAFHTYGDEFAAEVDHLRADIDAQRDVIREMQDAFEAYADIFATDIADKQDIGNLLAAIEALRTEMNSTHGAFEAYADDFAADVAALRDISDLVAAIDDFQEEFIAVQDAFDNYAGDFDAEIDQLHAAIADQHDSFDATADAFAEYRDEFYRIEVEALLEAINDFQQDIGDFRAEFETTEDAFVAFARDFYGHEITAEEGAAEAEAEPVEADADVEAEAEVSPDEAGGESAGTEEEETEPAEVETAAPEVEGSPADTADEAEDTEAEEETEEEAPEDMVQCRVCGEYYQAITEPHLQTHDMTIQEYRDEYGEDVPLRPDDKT
Put plainly: split reporter; split-GFP (NGFP and CGFP of salt-stable mGFP2) in Hfx. volcanii transformants, 24 h 37 °C then 24 h 30 °C; relative fluorescence (rf) against the wild type; the highest of eight tag combinations is given.

Test [4] deals with T3, GvpA fused to NGFP or CGFP (Halobacterium salinarum) (UniProt P08958).
T3 sequence: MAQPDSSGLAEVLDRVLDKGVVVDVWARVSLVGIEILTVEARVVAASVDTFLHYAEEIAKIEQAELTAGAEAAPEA
Described as above.

Test [5] has as its target T4, CBDA (Halobacterium salinarum) (UniProt P08958).
T4 sequence: T3 sequence
Put plainly: pull-down; CBD-tagged bait and one untagged prey co-produced in Hfx. volcanii CBDX/Y transformants; lysate in 2.5 M KCl buffer pH 8.0 bound to cellulose (Avicel), six washes, elution with ethylene glycol, Western analysis with Gvp antisera.

In test [6] the target is T5, CBDC (Halobacterium salinarum) (UniProt P24574).
T5 sequence: T2 sequence
Described as above.

The target of test [7] is T6, GvpC C-terminal fragment Cterm (Halobacterium salinarum) (UniProt P24574).
T6 sequence: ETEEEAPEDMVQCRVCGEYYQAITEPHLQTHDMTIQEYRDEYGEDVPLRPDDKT
Kind of test: split reporter; split-GFP (NGFP and CGFP of salt-stable mGFP2) in Hfx. volcanii transformants, 24 h 37 °C then 24 h 30 °C; relative fluorescence (rf) against the wild type; the highest of eight tag combinations is given.

Test [8] deals with T7, GvpA fragment A20-47 (Halobacterium salinarum) (UniProt P08958).
T7 sequence: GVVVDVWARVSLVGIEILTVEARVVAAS
The description is as above.

In test [9] the target is T8, GvpA fragment A1-43 (Halobacterium salinarum) (UniProt P08958).
T8 sequence: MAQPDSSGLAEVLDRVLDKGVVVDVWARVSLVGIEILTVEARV
The test is described as above.

Test [10] deals with T9, GvpA fragment A1-34 (Halobacterium salinarum) (UniProt P08958).
T9 sequence: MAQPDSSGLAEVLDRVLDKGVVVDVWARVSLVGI
The description is as above.

For test [11], the target named is T10, GvpA fragment A44-76 (Halobacterium salinarum) (UniProt P08958).
T10 sequence: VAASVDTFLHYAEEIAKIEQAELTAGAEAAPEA
The test is described as above.

Test [12] addresses T11, GvpO fused to NGFP or CGFP (Halobacterium salinarum) (UniProt O51968).
T11 sequence: T1 sequence
Described as above.

The target of test [13] is T12, GvpC N-terminal fragment Nterm (Halobacterium salinarum) (UniProt P24574).
T12 sequence: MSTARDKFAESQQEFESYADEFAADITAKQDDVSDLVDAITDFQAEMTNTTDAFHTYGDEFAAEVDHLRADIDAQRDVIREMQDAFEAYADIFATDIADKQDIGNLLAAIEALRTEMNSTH
The test is described as above.

Test [14] concerns the target GvpJ (Halobacterium salinarum) (UniProt P24374). Put plainly: SDS-PAGE and Western analysis of lysates; lysates of Hfx. volcanii transformants producing one Gvp protein alone (controls); bands larger than the monomer.
The target in test [15] is T4, CBDA (Halobacterium salinarum). Put plainly: pull-down; CBDA co-produced with GvpF through GvpM all together (CBDA/F-M transformants); cellulose matrix, elution fraction probed by Western analysis with each antiserum.

B1: GvpC (protein, UniProt P24574 1-382)
chain: T2 sequence
In the case of B1, the binding result in test [1] and in test [2] was “binds” each time.

B2: GvpA (protein, UniProt P08958 1-76)
chain: T3 sequence
Take B2: the binding result in test [2] is “binds”.

B3: GvpC N-terminal fragment Nterm (domain or fragment, UniProt P24574 10-130)
chain: T12 sequence
For B3, the values for the binding result in test [3] and in test [4] were “binds” and “no binding (tested: rf < 2.5)”, respectively.

B4: GvpC C-terminal fragment Cterm (domain or fragment, UniProt P24574 329-382)
chain: T6 sequence
On to B4, for which the values for the binding entry in [3] and in [4] were “binds” and “no binding (tested: rf < 2.5)”, respectively.

B5: GvpO (protein, UniProt O51968 1-119)
chain: T1 sequence
In the case of B5, the binding entry in [5] and in [6] was “binds” throughout.

B6: GvpO fused to NGFP or CGFP (protein, UniProt O51968 1-119)
chain: T1 sequence
Consider B6, for which the binding result in test [7] is recorded as “binds”.

B7: GvpA fragment A1-22 (domain or fragment, UniProt P08958 1-22)
chain: MAQPDSSGLAEVLDRVLDKGVV
With B7, the binding result in test [8], in [9], in [10] and in test [11] was “no binding (tested: rf ≤ 0.48)” in each case.

B8: GvpA fragment A1-34 (domain or fragment, UniProt P08958 1-34)
chain: T9 sequence
In the case of B8, the binding result in [8], in test [9] and in test [11] was “no binding (tested: rf ≤ 0.48)” in each case.

B9: GvpL fused to NGFP or CGFP (protein, UniProt Q9HI27 1-281)
chain: MTDHRPSPEEEQTTANEERTVSNGRYLYCVVDTTSSESATLSTTGVDDNPVYVVEADGVGAVVHDCETVYETEDLEQVKRWLVTHQQVVDAASDAFGTPLPMRFDTVLEGGDASIERWLEDHYEGFRDELASFAGVWEYRINLLWDSAPFEETIADRDDRLRELRQRQQQSGAGKKFLLEKQSDQRLQELKRERRTELADQLKEAITPVVNDLTEQDTNTPLQDEHSSIEKEQIVRFAVLADEDDETALGDRLDTIVEHEGVEIRFTGPWPPYTFAPDIGK
On to B9, for which the binding entry in test [12] and in test [13] was “binds” in each case.

B10: GvpJ (protein, UniProt P24374 1-114)
chain: MSDPKPTRSQGDLAEMLEMLLDKGVVVNADIAVSVGDTELLGIELRAAIASFETAAEYGLEFPTGTDMERVESAANISPDQSDPASETQSETESTNPLSDDSTPTASTSAEETK
In the case of B10, the binding entry in test [14], in test [5] and in test [15] was “binds” each time.
